About 540 (0.36%) of roughly 150,000 compounds showed an effect of 50% or more. The list shows a part of the results.
test system: Plasmodium falciparum; test: Primary screen in NF54 nanoGlo assay, in single point, at 2uM, 72h; a lower Z score goes with more inhibition; format: functional, Erythrocyte; conditions: timepoint 72 hour

SMILES	% Inhibition [%]	Z score
COc1ccccc1Cn1cnc2cc(C(=O)N3CCNC(=O)C3)ccc21	-9	1.02
O=C(C[C@H](c1c[nH]c2ccc(Cl)cc12)C1CCCCC1)N1CCOCC1	-11	1.43
CCCCS(=O)(=O)N(C)Cc1cccnc1OCC	34	-3.86
Cc1nc(N(C)C)nc(-c2ccc(F)c3cccnc23)c1C	5	-0.76
CC(C)c1cc(CNC(=O)c2cccc(=O)[nH]2)no1	-4	0.77
Cc1ccccc1OC[C@H](C)n1cnc2nccnc2c1=O	-3	0.43
Cc1nc2sccn2c1CN(C)S(=O)(=O)C1CC1	-2	0.2
Cc1c(Cn2cnc3nccnc3c2=O)oc2ccccc12	-12	1.41
O=C(c1cnsn1)N1CCOC2CCCCC21 (stereo not given)	-6	0.95
O=C1N(c2cccc(Cl)c2)c2ncccc2S(=O)(=O)N1Cc1ccccc1	-4	0.5
CCn1nc(C)c(-c2csc(COC(C)C)n2)n1	-1	0.18
CC(C)(C)C1CCC(CC(=O)Nc2nc(CS(C)(=O)=O)no2)CC1 (stereo not given)	-8	1.2
Cc1cccc(N2C(=O)[C@H]3[C@@H](C2=O)[C@]2(C(=O)Nc4c2ccc(C)c4C)N2CCC[C@@H]32)c1C	6	-0.58
Clc1ccc(-c2csc3ncnc(N4CCC[C@H](C5OCCO5)C4)c23)cc1	-11	1.67
COc1ccc(NC(=O)c2cnc(O[C@H]3CCOC3)c(Cl)c2)cn1	-16	3.03
Cc1noc(C)c1CN1CC[C@H](NC(=O)CCc2ccncc2)[C@@H](O)C1	8	-0.7
Cc1cc(NC(=O)Nc2ccccc2CC(=O)OC(C)(C)C)[nH]n1	-1	0.09
COCCC(=O)N(C)c1ccc(Cl)cn1	14	-1.53
O=C(Cc1ccccc1Cl)N1C2CCC1CC(n1ccnc1)C2 (stereo not given)	-21	2.66
Cc1cc(C)cc(C(O)CN2CCCC(C3(C)NC(=O)NC3=O)C2)c1 (stereo not given)	-1	0.14
COCCc1ncc(CN[C@H]2CCCN(CCCc3ccccc3)C2)cn1	-21	3.1
Cc1cccn2c(CC(=O)Nc3cnn4c3NCCC4)cnc12	-9	0.82
CCCN(CCC(=O)NCCN1CCOCC1)c1nc(-c2cccc(Br)c2)nc2ccccc12	-9	1.2
Cc1nc(-c2csc(CN(C)C)n2)n(CC2CCCCC2)n1	0	0
CCNC(=O)NC1(CC2CC2)CCN(S(=O)(=O)c2cc(OC)ccc2OC)CC1	-8	1.45
COc1cc(NC(=O)N[C@H]2CCCc3c(F)cccc32)n(C)n1	-4	0.72
Cc1nonc1OCCN[C@@H](C)C(=O)Nc1nccs1	-8	0.99
CCOC(=O)CC1(NC(=O)N2CC[C@H](c3nc4cccnc4n3C)C2)CCCCC1	-5	0.65

SMILES	% Inhibition [%]	Z score
CCCCN=C(NCc1nnc2n1CCCCC2)N1CCCC1	8	-1.07
Cc1n[nH]c(C)c1CCNc1nccc(C2CCCC2)n1	2	-0.41
Cn1cc(NC(=O)NCC[C@@H]2CCCC[C@@H]2O)c(C(F)(F)F)n1	-3	0.65
CCn1c(=O)c(-c2nc(-c3ccncc3)no2)c(O)c2ccccc21	0	-0.01
Cc1oc(C(C)C)nc1C(=O)NC[C@@H]1OCCc2sc(F)cc21	-9	1.64
CC(C)Cn1ncc(C(=O)N2CCCN(Cc3cnn(C)c3)CC2)c1C1CC1	-8	0.94
CC(=O)N1CC2(CCN(c3nc(C)cc(C)n3)CC2)[C@H]2COC[C@H]21	-9	1.35
CC(=O)Nc1ccc(S(=O)(=O)NCc2ccc(C(=O)N(C)C3CCCCC3)cc2)cc1	-8	1.46
CC(=O)N1CCCN(C(=O)c2cn3ccc(C)cc3n2)CC1	0	0
Cc1ccc(CN2CCNC(=O)[C@@H]2CC(=O)Nc2ccc3oc(C)cc3c2)o1	-3	0.49
COc1ccc(-c2cc(C(C)=O)c(C)n2CCC(=O)NC2CCCC2)cc1	-1	0.19
O=C(c1cccc2nn[nH]c12)N1C2CCC1CC(CC(F)(F)F)C2 (stereo not given)	6	-0.66
O=C(NCC[C@@H](CCO)c1ccccc1)C(=O)Nc1ccon1	-3	0.45
COc1cc2c(cc1Cl)CN(Cc1cc(C)on1)CC2	-5	0.89
CC(C)CC(C)OC(=O)N1CCCCC1CNS(N)(=O)=O (stereo not given)	-6	0.85
CCCCn1ncnc1[C@H](C)n1cnc2ccccc2c1=O	-3	0.36
c1cncc(COc2cccc(-c3noc(-c4cnccn4)n3)c2)c1	-27	2.72
Cc1ccccc1CC(=O)N[C@@H](C)c1nnc2n1CCCCC2	-12	1.53
O=C1N(CCCc2ccccc2)CCC[C@@]1(O)CN1CCC(CCO)CC1	6	-0.81
O=C(c1ccc(Cl)cc1)N1CCCN(c2nc(C3CC3)nc3c2cnn3-c2ccccc2)CC1	-14	1.47
CCCn1nccc1S(=O)(=O)N1CCOC(C)(C)C1	0	0.07
Cc1ccc(CCNC(=O)Cn2nc(C)c(C)cc2=O)o1	-5	0.75
C=CCN(C)C(=O)c1c(F)cc(F)cc1F	-2	0.22
COc1ccc(C2C3C(C)=NN=C3CC(C)(O)C2C(C)=O)cc1 (stereo not given)	-1	0.13
CCOC(=O)N1CCN(Cc2cnoc2-c2cccc(OC)c2)CC1	0	0.09
O=c1[nH]c(N2CCC(N3CCCC3)CC2)nc2c1Cc1ccccc1OC2	1	-0.21
Cc1csc(S(=O)(=O)N[C@H]2CCOC[C@@H]2OCc2ccccc2)c1	-10	1.04

Reference: ChEMBL document CHEMBL4888484, “Replenishing the malaria drug discovery pipeline: Screening and hit evaluation of the MMV Hit Generation Library 1 (HGL1) against asexual blood stage Plasmodium falciparum ,using a nano luciferase reporter read-out” (2022)
